Consider one molecule from patent publication US20260042860A1 (Memorial Sloan Kettering, published 2026).

This assay deals with T1, CD24 on CD24(+) DSRCT cell lines (BER, BER-luc, SK-DSRCT-2-luc) (human).
T1 construct: also called DSRCT cell line BER; BER cell line
T1 chain: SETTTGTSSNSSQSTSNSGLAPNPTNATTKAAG
Kind of assay: flow cytometry on DSRCT cell line BER. As for the experimental part: CD24 BsAb binding to DSRCT cells. Binding of the humanized CD24 BsAb to target cells (DSRCT cell line BER) was evaluated by flow cytometry. […] The dotted line represents the level of background staining, above which is considered a positive signal.
(In general: Flow cytometry measures light scatter and fluorescence of single cells or particles in a stream.)

B1: humanized CD24×CD3 (huOKT3) BsAb (BC436) (bispecific antibody, human IgG1, kappa)
heavy: QVQLQESGPDLVKPSQTLSLTCTVSGYSITSGYTWHWIRQFPGNGLEWIGYIQYTGSTRYNPSLKSRVTISRDTSKNQFFLQLSSVTAADTAVYFCARGTTASFDYWGQGTLVTVSS[human IgG1 constant region with changes left out here]
light: DIVMTQSPSSLNVSLGERATIRCKSSQSLLYSSDQKNYLAWYQQKPGQPPKLLIYWASTRESGVPDRFSGSGSGTDFTLTISSLKAEDVAVYYCQQYFIYPLTFGVGTKLGLKRTVAAPSVFIFPPSDEQLKSGTASVVCLLNNFYPREAKVQWKVDNALQSGNSQESVTEQDSKDSTYSLSSTLTLSKADYEKHKVYACEVTHQGLSSPVTKSFNRGECTSGGGGSGGGGSGGGGSQVQLVQSGGGVVQPGRSLRLSCKASGYTFTRYTMHWVRQAPGKCLEWIGYINPSRGYTNYNQKFKDRFTISRDNSKNTAFLQMDSLRPEDTGVYFCARYYDDHYSLDYWGQGTPVTVSSGGGGSGGGGSGGGGSGGGGSGGGGSGGGGSDIQMTQSPSSLSASVGDRVTITCSASSSVSYMNWYQQTPGKAPKRWIYDTSKLASGVPSRFSGSGSGTDYTFTISSLQPEDIATYYCQQWSSNPFTFGCGTKLQITR
notes: IgG-[L]-scFv format on human IgG1; also called humanized CD24 BsAb; hu CD24 BsAb
Turning to B1, the binding result is “binds”.
